Reference: PubChem BioAssay (NCATS)
Where “and” joins values, the source holds several entries; their conditions need not be identical. Identical values can stand only once. The shares of active, inactive and inconclusive entries below differ from those in the screen. Potencies of inconclusive entries are doubtful fits and often do not repeat. Calls of active or inactive are those of the source. Calls come from the whole dose curve; as a rule, active = well fitted activation curve with a large enough effect; inconclusive = small, poorly fitted or top-dose-only effect; inactive = no such curve, though single readings can be large or run the other way.

These compounds were tested against Cellular tumor antigen p53 (Homo sapiens) (UniProt P04637) (assay: Primary qHTS for small molecule compounds that upregulate eGFP-tagged delta133p53alpha (in N-terminal) cells. (AID 2060322; note: nearly all actives have a fitted effect of over 75% in size;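 for activation: series mostly up to about 56 µM; 0% = DMSO vehicle and 100% = reference activator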)). Details: NCI-H358 eGFP-delta133p53alpha fluorescence, 24 h; activation: stronger effect = higher value.
UniProt P04637, sequence (P04637 whole entry, looked up): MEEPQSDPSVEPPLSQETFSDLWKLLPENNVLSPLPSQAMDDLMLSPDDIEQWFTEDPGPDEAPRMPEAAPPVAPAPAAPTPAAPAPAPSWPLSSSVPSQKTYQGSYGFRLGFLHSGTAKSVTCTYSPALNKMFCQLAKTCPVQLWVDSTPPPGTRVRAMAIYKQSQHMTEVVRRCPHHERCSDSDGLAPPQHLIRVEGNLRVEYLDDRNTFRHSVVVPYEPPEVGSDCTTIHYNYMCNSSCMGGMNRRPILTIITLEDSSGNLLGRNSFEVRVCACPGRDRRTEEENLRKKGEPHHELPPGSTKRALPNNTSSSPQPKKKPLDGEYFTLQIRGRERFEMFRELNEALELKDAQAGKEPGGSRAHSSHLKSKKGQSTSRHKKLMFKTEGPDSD
Procedure, shortened: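 NCI-H358 cells pre-induced 24 h with 10 ng/ml doxycycline to express N-terminal eGFP-delta133p53alpha, then dosed 24 h at 37C without doxycycline; fixed, Hoechst-stained, GFP intensity by laser scanning cytometry, normalized to DMSO (0%) and 57.5 uM 5-azacytidine (100%).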
Potency is the fitted concentration of half-maximal effect; tags give direction and shape of the fitted curve.

Compound | Potency | activation
CCCCCCCCCCCCCCCCCCOC[C@H](COP(=O)([O-])OCC[N+](C)(C)C)OC | inconclusive: 3.38 µM [activator, single point] | –
Oc1ccc2nc(CN3CCC(Cc4ccccc4F)CC3)[nH]c2c1 | – | inactive: -1.91%
CCCS(=O)c1ccc2nc(NC(=O)OC)[nH]c2c1 (stereo not given) | inconclusive: 19 µM [activator, single point] | –
CCN1CCN(Cc2ccc(NC(=O)c3ccc(C)c(Oc4ncnc5[nH]c(C)cc45)c3)cc2C(F)(F)F)CC1 | active: 23.9 µM | –
COc1cc(-c2ncn(/C=C\C(=O)OC(C)C)n2)cc(C(F)(F)F)c1 | inconclusive: 0.601 µM [activator, full curve] | –
CCOC(=O)Nc1cc(-c2ccc(C)c(NS(C)(=O)=O)c2)nn2c(C)nnc12 | – | inactive: 22.9%
Oc1ccc2c(-c3c(-c4ccccn4)nn4c3CCC4)ccnc2c1 | active: 26.9 µM | –
COc1ccc(S(=O)(=O)Nc2c(C)cc(C)cc2C)cc1 | inconclusive: 33.8 µM [activator, single point] | –
CCOC(=O)C1=C(C)NC(C)=C(C(=O)OC)C1c1cccc([N+](=O)[O-])c1 (stereo not given) | inconclusive: 19.5 µM [activator, partial curve, poor fit] | –
CC[C@H]1OC(=O)[C@H](C)[C@@H](O[C@H]2C[C@@](C)(OC)[C@@H](O)[C@H](C)O2)[C@H](C)[C@@H](O[C@@H]2O[C@H](C)C[C@H](N(C)C)[C@H]2O)[C@](C)(O)C[C@@H](C)C(=O)[C@H](C)[C@H]2OC(=O)O[C@@]21C | inconclusive: 3.38 µM [activator, partial curve, poor fit] | –
O=C(CCCCCCC(=O)Nc1ccc(C2OC(CSc3nc(-c4ccccc4)c(-c4ccccc4)o3)CC(c3ccc(CO)cc3)O2)cc1)NO (stereo not given) | inconclusive: 26.9 µM [activator, single point] | –
Cc1ccc(S(=O)(=O)Nc2ccccc2N2CCCCC2)s1 | inconclusive: 23.9 µM [activator, partial curve] | –
O=C(Nc1cc2cc[nH]c2cn1)c1ccccc1 | inconclusive: 43.2 µM [activator, single point] | –
CNCC(O)c1ccc(O)c(O)c1 (stereo not given) | inconclusive: 38.9 µM [activator, single point] | –
O=C(c1ccccc1)c1ccc2n1CCC2C(=O)O (stereo not given) | inconclusive: 43.2 µM [activator, single point] | –
COC(=O)c1cc2c(C(F)(F)F)cc(-c3ccccc3)cc2n1O | inconclusive: 8.49 µM [activator, partial curve] | –
CNCCC(Oc1ccccc1OC)c1ccccc1 (stereo not given) | inconclusive: 34.7 µM [activator, single point] | –
COc1cc2c(cc1OC(C)C)[C@H](c1ccc(Cl)cc1)N(c1ccc(N(C)CC3CCC(N4CCN(C)C(=O)C4)CC3)cc1)C(=O)C2 (stereo not given in full) | inconclusive: 37.9 µM [activator, single point] | –
CCS(=O)c1nc(-c2cccc(OCc3ccccc3)c2)cc(C(F)(F)F)n1 (stereo not given) | inconclusive: 26.9 µM [activator, single point] | –
CC(=O)OC1C(=O)C2(C)C(O)CC3OCC3(OC(C)=O)C2C(OC(=O)c2ccccc2)C2(O)CC(OC(=O)C(O)C(NC(=O)c3ccccc3)c3ccccc3)C(C)=C1C2(C)C (stereo not given) | inconclusive: 0.0085 µM [activator, full curve, poor fit] | –

Compound | Potency | activation
CC(C)c1cccc2c(-c3ccccc3)cc(-c3ccc(-c4ccc(C(=O)O)cc4)[nH]3)nc12 | inconclusive: 33.8 µM [activator, single point] | –
CCCCCC[C@@H]([C@@H](C)O)n1cnc2c(N)ncnc21 | – | inactive: -41.6%
NCC1OC(O[C@H]2[C@H](O)[C@@H](OC3C(O)C(N)CC(N)C3OC3OC(CO)C(O)C(O)C3N)O[C@@H]2CO)C(N)C(O)C1O (stereo not given in full) | – | inactive: 6.76%
CC[C@H](/C=C/[C@@H](C)[C@H]1CC[C@H]2[C@@H]3CC=C4C[C@@H](O)CC[C@]4(C)[C@H]3CC[C@]12C)C(C)C | inconclusive: 0.151 µM [activator, full curve, poor fit] | –
CCS(=O)(=O)N(Cc1cccnc1)c1cccc(-c2ccc(C#N)cc2)c1 | inconclusive: 37.9 µM [activator, single point] | –
CCCSc1nc(N[C@@H]2C[C@H]2c2ccc(F)c(F)c2)c2nnn([C@@H]3C[C@H](OCCO)[C@@H](O)[C@H]3O)c2n1 | inconclusive: 37.9 µM [activator, single point] | –
O=S(=O)(NCC1CC1)c1ccc(Nc2nccc(N3CCCc4cc(O)ccc43)n2)cc1 | inconclusive: 37.9 µM [activator, single point] | –
CCOC(=O)N1CCC(NCCNC(=O)c2ccccc2C)CC1 | – | inactive: 6.68%
O=C(NNc1nc2cc(F)ccc2n2cccc12)c1cnccn1 | inconclusive: 21.3 µM [activator, single point] | –
COc1ccc(C2Sc3ccccc3N(CCN(C)C)C(=O)C2OC(C)=O)cc1 (stereo not given) | inconclusive: 43.2 µM [activator, single point] | –
CN(C)CCN(Cc1ccccc1)C(=O)c1cc(-c2ccc(F)cc2)n2nc(C(C)(C)C)cc2n1 | inconclusive: 19 µM [activator, partial curve] | –
O=C(Nc1cn[nH]c1-c1nc2ccc(CN3CCOCC3)cc2[nH]1)NC1CC1 | inconclusive: 4.32 µM [activator, full curve, poor fit] and inconclusive: 6.75 µM [activator, full curve, poor fit] | –
NC1CCN(O)C1=O (stereo not given) | – | inactive: -20%
COc1c/c(=C2\C=c3ccccc3=N2)[nH]/c1=C\c1[nH]c(C)cc1C | inconclusive: 0.675 µM [activator, full curve, poor fit] | –
CN(C)CCN(Cc1ccc(-c2ccc(CNCCc3ccccc3)cc2)cc1)C(=O)CCC1CCCC1 | inconclusive: 21.3 µM [activator, single point] | –
C=C(C)Cn1c(SCC(=O)c2cccs2)nc2sc3c(c2c1=O)CCCC3 | – | inactive: -5.73%
COc1ccc(CNC(=O)c2sc3nc(C)cc(C)c3c2N)cc1 | – | inactive: -8.11%
COc1ncc(-c2ccc3c(Nc4cc(Oc5cc(F)cc(F)c5)cc(C(=O)O)c4)c(S(=O)(=O)NC4CC4)cnc3c2)c(OC)n1 | – | inconclusive: -1.95% [activator]
N#Cc1ccc2[nH]c(O)c(-c3ccc(CN4CCOCC4)cn3)c2c1 | inconclusive: 37.9 µM [activator, single point] | –
Cc1[nH]c2ccccc2c1CCNC(=O)c1ccccc1F | – | inactive: -0.477%
